This is an account of results in paper PMC10726135.

Some of the results follow. At the low end of the ranking the order means little. Measured with an extract: partners may take part in the binding.

This experiment addresses T1, HNF4alpha8 (COS-7 nuclear extract) (UniProt P41235-5).
T1 sequence: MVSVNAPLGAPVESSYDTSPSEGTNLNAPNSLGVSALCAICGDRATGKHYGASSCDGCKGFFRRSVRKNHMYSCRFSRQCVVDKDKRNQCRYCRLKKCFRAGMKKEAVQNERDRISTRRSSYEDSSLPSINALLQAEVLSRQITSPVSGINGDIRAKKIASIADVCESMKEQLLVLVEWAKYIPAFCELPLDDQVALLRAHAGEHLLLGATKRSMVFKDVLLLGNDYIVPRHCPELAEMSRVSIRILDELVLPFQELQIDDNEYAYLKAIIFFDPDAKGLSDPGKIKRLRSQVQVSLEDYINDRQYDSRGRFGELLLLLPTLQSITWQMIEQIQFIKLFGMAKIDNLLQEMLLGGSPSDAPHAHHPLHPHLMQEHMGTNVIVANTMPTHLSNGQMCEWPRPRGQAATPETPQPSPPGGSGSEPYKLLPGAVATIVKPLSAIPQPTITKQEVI
Briefly: protein-binding microarray. As to conditions: COS-7 nuclear extract on double-stranded Agilent 4x180k PBM; binding buffer, salt, pH and temperature not given; high values mean tight binding; double strand, one strand shown; sequences stand for … in …GCCTAGGGAGATTAGAGTATCGGTCGA
As to CAAACACAACATTGAAAGCGATCTTTGCAT, the binding signal (log2 normalized intensity) was -0.637.

For the sequence TTACATGGATTAGTCCCTTTTCACGCTAAG, the binding signal (log2 normalized intensity) is -1.33.

As to TGGAGCCAGATGCACACAGGATCAATAAAA, the binding signal (log2 normalized intensity) is -1.28.

For the sequence ACTCTCACCTTGGGGGCTGCTGGGGGCACA, the binding signal (log2 normalized intensity) was 1.1.

As for TCCATAGTTCCGAGTTCCCTCGATTATTTC, the binding signal (log2 normalized intensity) was -0.0853.

For the sequence TTTCCTTCTAGCTCCCCAATAGACATAACT, the binding signal (log2 normalized intensity) was 2.96.

For CCAGCGCAGGGGCTTCTGCTGAGGGGGCAG, the binding signal (log2 normalized intensity) is -0.347.

Take TGAGCATTCCAAAAAGCTTTTGTCATGACC: the binding signal (log2 normalized intensity) came out at 1.7.

In the case of TCTTATCTGGGGGCCATTCCTCTATCTCCC, the binding signal (log2 normalized intensity) is 0.659.

On to TGAGGGAGGGCACAGGCAACAGAGGAGCAT, for which the binding signal (log2 normalized intensity) is -1.29.

As to TGAGGTGCAGGACAAAGTGTGCACTTTGCA, the binding signal (log2 normalized intensity) amounted to 2.54.

As for AAAGAAGCTACTAGCAAATCTGCCCAACCT, the binding signal (log2 normalized intensity) was -1.19.

Consider CAAAGGCATTTCTGGACTTGGATCAGCCTG, for which the binding signal (log2 normalized intensity) was determined as 2.49.

Regarding AGGAGGCTGAAGACTTTGCACCAAGGAGAC, the binding signal (log2 normalized intensity) came to 0.928.

With GATAAGGATCTAAGAACTAACATGGATCTA, the binding signal (log2 normalized intensity) was -1.33.

As for AGTTATATCTTACCTCCTTCTCCCCCATGC, the binding signal (log2 normalized intensity) worked out at 4.73.

Consider AGGACTTTGTGATTACATTGAGTCCACTGA, for which the binding signal (log2 normalized intensity) was 2.4.

As to TGGGTAAACAGACCTCTCTCTCCCCAGACA, the binding signal (log2 normalized intensity) is 3.14.

For the sequence CACAGACTTTGGAATCACAATGATAACAGC, the binding signal (log2 normalized intensity) is 0.731.

As for GAGAGGGTTAAAAACCAGAATGACAAGCTG, the binding signal (log2 normalized intensity) was -1.35.

AGGCAGGGGATGAGATCTGAAGATAAATGC: the binding signal (log2 normalized intensity) is -1.21.

With AAGAAAGAGACCTTTACCCTGACCTGTCAA, the binding signal (log2 normalized intensity) was 3.36.

With CCCTTTAGTGCCTGGATCTTGGAACAGGTC, the binding signal (log2 normalized intensity) stood at 1.97.

On to TTACAGATAAGCAGAAGGTCAGGTGAATCA, for which the binding signal (log2 normalized intensity) was -0.811.

Consider TTCTAAAAATAGCCTTACTTTAAAGCTGAT, for which the binding signal (log2 normalized intensity) is -1.09.

As for CCAGGAGCCCCACGTTTATCTTGGAACCTC, the binding signal (log2 normalized intensity) was 1.45.

As to TGTGCTCCCGACTGCTCCACCAGCGCGTGC, the binding signal (log2 normalized intensity) is -1.33.

Consider GATCATAATCCCTTATGACGGACAAAGGGC, for which the binding signal (log2 normalized intensity) was 2.17.

On to GAACAGTCCTACAAATGATCAAAGGTTGGT, for which the binding signal (log2 normalized intensity) stood at 3.74.

Take TCTGCCATTGTCGTGGTTGTAGAAAGCAGC: the binding signal (log2 normalized intensity) came to 0.216.

As to TTTTCTTGGACTTTGGTCATCCTTTACTTT, the binding signal (log2 normalized intensity) amounted to 6.91.

As to CACCTGGTTCCTTGCAAGATAAGGGTCAGC, the binding signal (log2 normalized intensity) is 2.94.

ACCCTGGTCTTTGCCCTTTCCTAGACGTAA: the binding signal (log2 normalized intensity) amounted to 2.89.

For ATGCCTGATAAAGGGGGCAAAGGGCATGGG, the binding signal (log2 normalized intensity) turned out to be 5.57.

Take TGGGCCTGGCTGAGCCTGGGCCGCCAAACT: the binding signal (log2 normalized intensity) is -1.22.

Regarding CCTTGGCCTGCTCCTTGGAAGTCGCCGTGA, the binding signal (log2 normalized intensity) is -1.26.

With AGCTGCTCTAAGAATGCAGAAACAAATACA, the binding signal (log2 normalized intensity) was -1.31.

In the case of GTAGACAATAGGGCAGAGGAAACAAACAGA, the binding signal (log2 normalized intensity) is -1.39.

On to AAGTCCAACAGGGTTAAAAGCAAACCAAAA, for which the binding signal (log2 normalized intensity) was -1.29.

For TCATCTGGTGGCTTGAGTTGGAGAAGAGCA, the binding signal (log2 normalized intensity) was -0.0434.

With GCAGTGGGACAAAGGTCACAGGAAAGGGAC, the binding signal (log2 normalized intensity) worked out at 4.96.

Regarding ATAGTGATAAGGATCTAAGAACTAACATGG, the binding signal (log2 normalized intensity) is -1.01.

TTCGGGTTTTCGCAGCAAGTTACACAAGTA: the binding signal (log2 normalized intensity) was -1.32.

On to TAAGTATAAAGTTAAGACCTACATTAAGAC, for which the binding signal (log2 normalized intensity) was -1.41.

On to TTACCTGAAATGAGACCAAAGTATTTAACC, for which the binding signal (log2 normalized intensity) was -0.349.

With GACACCAAACAGACCTCCCCCAACTTACTT, the binding signal (log2 normalized intensity) came to 3.06.

Regarding GCTGTTTCCAAATATCTGACTGTAAATTTG, the binding signal (log2 normalized intensity) is 0.196.

For GGTGACAGTATCAAAGTCCCCAGATAAGAC, the binding signal (log2 normalized intensity) stood at 3.02.

In the case of TCTTGGAATGTTGAACCTTTCTTTGTCTTT, the binding signal (log2 normalized intensity) turned out to be 2.31.

As to AATGGTGGGATAGGAGACATGAAGGACATA, the binding signal (log2 normalized intensity) is -1.26.

As for AGGCTCTTAGCAGAAGCCCTCCTGGACATT, the binding signal (log2 normalized intensity) came out at 2.42.

For GAGCCCTCCCCTTGTCTGATAAGATTCAGA, the binding signal (log2 normalized intensity) stood at 3.23.

On to TCACCACTTTTGCAATGTTTCCAAACCCCT, for which the binding signal (log2 normalized intensity) stood at 2.74.

As for TATGTGGCATTTCAAAGGAGGAGGCCTAGG, the binding signal (log2 normalized intensity) was -1.17.

As to AGACACAGACTCAAGTGAGGAAGGAACTGG, the binding signal (log2 normalized intensity) is -1.22.

For CTCTCCCCACCCCCAAATCCCCTTCAAGTC, the binding signal (log2 normalized intensity) worked out at 5.6.

For the sequence CTTCAAACGGGAAGCGAGGCCTCATTGGCC, the binding signal (log2 normalized intensity) was -1.28.

For TTCAACTGATAAGAAGGGGCCTAGCTTGTA, the binding signal (log2 normalized intensity) was -1.51.

As to ACACGTGGGACCATGAGTACCAGGTCAAAA, the binding signal (log2 normalized intensity) came out at 1.69.

Consider CCTTCCAAAGTCCACCTCAACCTCCCCCTG, for which the binding signal (log2 normalized intensity) is 5.26.

On to CAGGGTGAAATTCAACAGAACTGTTTGAGG, for which the binding signal (log2 normalized intensity) was -1.33.

For the sequence TGTAGAATTATCCAGATCAAGGATTTTTTC, the binding signal (log2 normalized intensity) was -0.774.

With CACATCCAGATGAGAGCAGAGGCTGGGGCC, the binding signal (log2 normalized intensity) was -1.25.

Regarding TAACTATGGTCACGCGGCCAAAATGTTCAG, the binding signal (log2 normalized intensity) was -1.04.

Regarding TGCTCATAATGCCAGGCAGGAAGGAGCCTG, the binding signal (log2 normalized intensity) is -1.32.

With TTTAGAGGATTTACTTATACAGCGTCTAAG, the binding signal (log2 normalized intensity) was -1.39.

Take AGAGTCATCACAATAGGGAAACAGCGAGAG: the binding signal (log2 normalized intensity) is -1.28.

For the sequence TGCCCTCTGTCCCATGGTGTACAAGGAGTC, the binding signal (log2 normalized intensity) was found to be 1.67.

For TATCACCTGCCAGCTGTTATGAGTCTGTTG, the binding signal (log2 normalized intensity) stood at 1.35.

As to TAAGCACCCAGAGCCCCACCGTTGTGTAAT, the binding signal (log2 normalized intensity) amounted to 2.32.

In the case of CAAGACCTCTTTGCGGATAGATATGTTGAA, the binding signal (log2 normalized intensity) came out at 1.44.

Turning to CACCAGGGCCTCTGAGATAAGGGTTCAAAC, the binding signal (log2 normalized intensity) is 2.57.
